Assay results from PMC9300923 (Frontiers in Pharmacology, 2022).

What was measured:
Experiment in all cases: biochemical
PLY (Pneumolysin O) = PLY (Pneumolysin O) (Streptococcus pneumoniae, UniProt P0C2J9)
LLO (Listeriolysin O) = molecular target: T1, LLO (Listeriolysin O) (Listeria monocytogenes, UniProt P13128)
T1 construct: gene hly

SLO (Streptolysin O) = SLO (Streptolysin O) (Streptococcus pyogenes, UniProt P0C0I3)

Sequence of UniProt P0C2J9 (P0C2J9 whole entry, looked up): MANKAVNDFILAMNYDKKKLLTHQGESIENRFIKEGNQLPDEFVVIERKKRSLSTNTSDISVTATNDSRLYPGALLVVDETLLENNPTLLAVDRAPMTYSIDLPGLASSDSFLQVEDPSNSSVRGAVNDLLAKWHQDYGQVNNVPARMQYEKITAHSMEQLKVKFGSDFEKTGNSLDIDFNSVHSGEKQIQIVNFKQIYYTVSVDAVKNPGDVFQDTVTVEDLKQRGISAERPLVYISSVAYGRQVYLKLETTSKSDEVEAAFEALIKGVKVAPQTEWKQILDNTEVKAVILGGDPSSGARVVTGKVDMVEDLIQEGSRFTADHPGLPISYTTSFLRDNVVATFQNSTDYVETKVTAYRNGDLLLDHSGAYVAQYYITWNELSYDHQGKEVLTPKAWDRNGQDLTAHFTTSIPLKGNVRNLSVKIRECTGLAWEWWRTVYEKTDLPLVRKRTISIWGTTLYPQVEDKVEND

O=c1cc(-c2ccc(O)c(O)c2)oc2cc(O)cc(O)c12 [Luteolin]
Kd (PLY (Pneumolysin O)): 613 nM | Kd (LLO (Listeriolysin O)): 437 nM | Kd (SLO (Streptolysin O)): 372 nM
